Assay results: US20210070868A1 (VERTICAL BIO, published 2021)

Biological target: T1, wild-type decoyMET (extracellular portion of human HGFR/MET: SEMA, PSI, IPT-1 to IPT-4) (human, UniProt P08581 25-932)
T1 construct: Soluble recombinant receptor from HEK-293T cells, purified on HisTrap; also called decoyMET wild type; MET (solid phase in the fusion protein ELISA)
Assay: ELISA, wild-type decoyMET in solid phase, scMvDN30 (0-1000 nM) in liquid phase (FIG. 10B)
Description: (A) Binding analysis to HGF by ELISA. Left panel, binding of the fusion proteins containing decoyMET^K842E at the N-terminal and scMvDN30 at the C-terminal. Right panel, binding of the fusion proteins containing scMvDN30 at the N-terminal and decoyMET^K842E at the C-terminal. The fusion proteins or decoyMET^K842E (positive control) were in solid phase. Increasing concentrations of HGF were added in liquid phase. HGF binding was detected using a biotinylated anti-HGF antibody. Each point is the mean of values in triplicate±SD. (B) Binding analysis to MET by ELISA. Left panel, binding of the fusion proteins containing decoyMET^K842E at the N-terminal and scMvDN30 at the C-terminal. Right panel, binding of the fusion proteins containing scMvDN30 at the N-terminal and decoyMET^K842E at the C-terminal. Wild-type decoyMET was in solid phase and increasing concentrations of the different fusion proteins were in liquid phase; as positive control scMvDN30 was included in the assay. Antibody binding was detected using an HRP-conjugated anti-human k chain antibody. OD, optical density at 450 nm. Each point is the mean of values in triplicate±SD. […]
Colorimetric assay was quantified by the multi-label plate reader VICTOR-X4 (Perkin Elmer Instruments INC., Whaltman, Mass.).

- binding result: binds
B1: single chain MvDN30 (anti-HGFR single-chain Fab fragment) (Fab)
chain: DIVLTQSPASLAVSLGQRATISCKASQSVDYDGGSYMSWFQQRPGQPPKLLISAASNLESGIPARFSGSGSGTDFTLNIHPVEEEDVATYYCQQSYEDPLTFGAGTKVEIKRTVAAPSVFIFPPSDEQLKSGTASVVCLLNNFYPREAKVQWKVDNALQSGNSQESVTEQDSKDSTYSLSSTLTLSKADYEKHKVYACEVTHQGLSSPVTKSFNRGECGGSSGSGSGSTGTSSSGTGTSAGTTGTSASTSGSGSGGGGGSGGGGSAGGTATAGASSGSQLQQPGTELVKPGASVKLSCKASGYTFTSYWIHWVKQRPGQGLEWIGEINPSSGRTNYNEKFKNKVTVTVDKSSTTAYMQLSNLTSEDSAVYYCASRGYWGQGTTLTVSSASTKGPSVFPLAPSSKSTSGGTAALGCLVKDYFPEPVTVSWNSGALTSGVHTFPAVLQSSGLYSLSSVVTVPSSSLGTQTYICNVNHKPSNTKVDKKVEPKSCDKTHTTGTRGAAWSHPQFEKGAAWSHPQFEKGAAWSHPQFEKGAAHHHHHH
notes: also called scMvDN30; ScMvDN30
